# Reference: publication PMC12136788
# The list shows a part of the results.
# B1: chr1:6284582:6284583:-_ENSG00000116237_ENST00000343813|hu_mus|FALSE|FALSE (ssRNA)
# RNA: GGGAGUUCUACAGUCCGACGAUCGAGGCUCAGAGUCCCUUGGAAUCUACACUGCUAUUUUUAUAAAAUUGGUGUGUAAAUGUGAUUAAAUGUAUGAGGAGCCGAGGGCAGAAGUCUUCAGAGCUAAUGCAGAUGCUCAUGCACCAACAGAGGAUUGAGCAUCA
# B2: chr10:112362727:112362728:-_ENSMUSG00000074748_ENSMUST00000099276|mus_mus|motif|central (ssRNA)
# RNA: GGGAGUUCUACAGUCCGACGAUCGAUCCCAGCAUGCGAUAAUGCCAGGUAGUGGCCCCUGGGCAUGCGAUGGUGGGAACGGAUUUACUGAAGAAAAAAGCACAAACCACAGAAAAUGUAAAGAACCCCUUCCCCCUAUACACACAACAGAGGAUUGAGCAUCA
# B3: chr18:10010065:10010066:-_ENSMUSG00000047879_ENSMUST00000092096|mus_mus|motif|central (ssRNA)
# RNA: GGGAGUUCUACAGUCCGACGAUCCAGAAUAAUAGGUGGGAUACUAGAAGAAGUUUUAUCCAUGGAAUCAAACAAAUCUCGGAGAGCUGCAGUAAUAUACUGUGCUGAAGCCAUUUCUCCUGAAGCUCUCAACGCACCUGCAUACAACAGAGGAUUGAGCAUCA
# B4: 43183801_43183921_2363_3pUTR_ENSG00000136448_ENST00000258960|human|control|control (ssRNA)
# RNA: GGGAGUUCUACAGUCCGACGAUCGAUGUUACAAGGAGGUCCAAGGGCCUCUUCAAACUGCAUCAUCCCAGGCAGUGGAAAAGCAAAAUCUCACAGGGGACUCAUCCCUAUAAGGUUGGCAACAACUGGCUAAAGAGCCCUUUUCAACAGAGGAUUGAGCAUCA
# B5: chr5:143665068:143665069:-_ENSMUSG00000029580_ENSMUST00000100497|mus_hu|FALSE|FALSE (ssRNA)
# RNA: GGGAGUUCUACAGUCCGACGAUCUACAUAAUUUACACGAAAGCAAUGCUAUCACCUCCCCUGUGUGGACUUGGGAGAGGACUGGGCCAUUCUCCUUAGAGAGAAGUGGGGUGGCUUUUAGGAUGGCAAGGGACUUCCUGUAACCAACAGAGGAUUGAGCAUCA
# B6: 13808297_13816788_1590_CDS_ENSMUSG00000006586_ENSMUST00000098257|mouse|control|control (ssRNA)
# RNA: GGGAGUUCUACAGUCCGACGAUCACUUGCUUUCCGGCCACAGUUCCAGCAACUCUCACUGGAGUCUUCCUGCUGGUUGAUGACUGCUAGAGCAUCUUCUGCUGCCUGCCUCUUCGCUUCAGCCACCGUGCGUUCCAUCUUGGCCAACAGAGGAUUGAGCAUCA
# B7: chr3:193353255:193353256:+_ENSG00000198836_ENST00000392438|hu_hu|FALSE|FALSE (ssRNA)
# RNA: GGGAGUUCUACAGUCCGACGAUCAAUCAAAGAUUUCUUAAGCUUUCUAUGAUGAAUGCCUUUGUCAUCUUUCUGCAAUACUAAUUUUCUCAAUUCUUUGUUCUCCUUUUCUAAUCGUUCCAAGAUUCUCUGAUACUUCAACUGCAACAGAGGAUUGAGCAUCA
# B8: chr5:57752887:57752888:-_ENSG00000145632_ENST00000274289|hu_mus|FALSE|FALSE (ssRNA)
# RNA: GGGAGUUCUACAGUCCGACGAUCCUUAAAGAAAUUCUUGGCUGGGCUUGACAAGUGGAAAUCUGGAACUGUGUGGCAACAGCUGGAAGAGAGUCUGUCCGGAGUGAAACCCUGCAGGAAGAAGUCAUGCCGAAUGAUGUCAUCCAACAGAGGAUUGAGCAUCA
# B9: chr7:148072430:148072431:+_ENSMUSG00000025487_ENSMUST00000026560|mus_mus|FALSE|FALSE (ssRNA)
# RNA: GGGAGUUCUACAGUCCGACGAUCAAAAGUAAGAGCCACAUUAGGAUCGGUCAUCUGUCUAACCACAUGGAGAAUUAUUUCUACCAGGGACAGAGGGUUUACCCUGUGCUCAAACUCACUGAUGAAGUUUUCAUAAAGCUUAAUCAACAGAGGAUUGAGCAUCA
# B10: 49392233_49392453_1748_CDS_ENSMUSG00000069495_ENSMUST00000092123|mouse|control|control (ssRNA)
# RNA: GGGAGUUCUACAGUCCGACGAUCAGAAGAAAAGUCUAUAGUUUGGGAAGAGCUUGAAAACCCGUUCAGCAUCUCAGGGUCUAUCUGUUUCAGGACGGGGUCAUGUUCUGUGGAUAUUCGGUCCAUUAUGACCCUGCCACCUCUCAACAGAGGAUUGAGCAUCA
# B11: 66833482_66833694_1988_CDS_ENSG00000184588_ENST00000423207|human|control|control (ssRNA)
# RNA: GGGAGUUCUACAGUCCGACGAUCCUUCGUUUCUACCAUUGUCUUCAGGUCUGCCAGCAGGCUCAUAUGUUUAGACAUAUCAGUUGCUAACACCAUGUCAAUAACCAUCUUCCUGAGUGUCUGACGCUGCUUCUUGGUGAGAUUCAACAGAGGAUUGAGCAUCA
# B12: 112921203_112921323_768_CDS_ENSMUSG00000036862_ENSMUST00000078482|mouse|control|control (ssRNA)
# RNA: GGGAGUUCUACAGUCCGACGAUCAUACCCUUGGGUUCCUAGGCGGCCGGCAUCUGCAUCACGAGCAGGCUCCAGUGGGUAACGUGUACCAAGAGCUGUAUGCUCAGGUAUCUGCAGGGCUGCCCGAGCCUGAGGGAAAGCUGGCAACAGAGGAUUGAGCAUCA
# B13: chr9:37780659:37780660:-_ENSG00000107371_ENST00000396521|hu_hu|motif|central (ssRNA)
# RNA: GGGAGUUCUACAGUCCGACGAUCGGUUCACCUGAAAAAACCCAUAGUUUUUUGCCUCAACUGACCUGUAAAAAAGUCCACCGGUAUCAACUUUCUGCCAAUCUGGAGAAGAUCUGUUUUCUUUGAUCUGACGUCAUGUGUUCACAACAGAGGAUUGAGCAUCA
# B14: 64765874_64765994_1549_3pUTR_ENSMUSG00000059920_ENSMUST00000076991|mouse|control|control (ssRNA)
# RNA: GGGAGUUCUACAGUCCGACGAUCUAGUCACUAAAUAAAAUGAAAACAUUACCUAAAGUUUCUAAGGCACACAGGCAUCUACAAUAUCUCAAGUGGGAUUUAUUUGGUGGACCGCAAUAAGUUCUCAGAACAUUUGCUGUAACUCAACAGAGGAUUGAGCAUCA
# Molecular target: T1, UNK ZnF1-3 (human, UniProt Q9C0B0 31-174)
# T1 sequence: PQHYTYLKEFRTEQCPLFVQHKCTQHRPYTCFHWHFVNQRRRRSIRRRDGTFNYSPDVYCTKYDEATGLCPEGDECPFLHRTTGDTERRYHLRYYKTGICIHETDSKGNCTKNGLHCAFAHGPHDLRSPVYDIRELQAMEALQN
# Assay: nsRBNS (natural sequence RNA bind-n-seq); RBNS binding buffer (assumed for nsRBNS): 25 mM Tris pH 7.5, 150 mM KCl, 3 mM MgCl2, 0.01% Triton X-100, 500 ug/ml BSA, 20 U/ml SUPERase-In, 4 C; UNK is unkempt and MSI1 is Musashi-1; names of the RNAs are library labels; protein concentration not given here; high values mean tight binding
row,Binder,binding signal [enrichment R]
1,B1,1.51
2,B2,1.58
3,B3,1.21
4,B4,1.12
5,B5,1.44
6,B6,0.758
7,B7,0.485
8,B8,1.41
9,B9,1.64
10,B10,0.574
11,B11,0.476
12,B12,0.349
13,B13,0.954
14,B14,1.29
